# Reference: the supplement of paper PMC12645437, “Orthogonal IMiD-Degron Pairs Induce Selective Protein Degradation in Cells” (ACS Chemical Biology, 2025)
# The other results are listed elsewhere or left out.
# Target: no compound (DMSO)
# Assay: log2 fold change of degron read counts, EGFP-low vs EGFP+ sorted cells; higher = lower degron-EGFP level without compound (poor expression or instability)
# Details: compound: DMSO control; 18 h
# 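Note: jurkat cells carrying a lentiviral library of mutant zinc finger degrons fused to EGFP plus mCherry, mCherry+ cells FACS sorted, degron abundance counted by next-generation sequencing.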
row,Sequence,log2 fold change of degron read counts
1,FHCSVCGHRFTQKGNLLRHIKL,0.0615
2,FYCEICGANFTQKGNLLRHIKL,-0.658
3,FQCDICGAVFTQKGNLLRHIKL,-1.94
4,FSCDICGAWFTQKGNLLRHIKL,-0.79
5,FFCEICGAQFTQKGNLLRHIKL,-0.764
6,FFCPQCGAMFTQKGNLLRHIKL,0.199
7,FFCPQCGAYFTQKGNLLRHIKL,0.511
8,FYCPQCGAFFTQKGNLLRHIKL,1.21
9,FMCDVCGAEFTQKGNLLRHIKL,-2.19
10,LFCNQCGFCCTQKGNLLRHIKL,1.47
11,FACPQCGARFTQKGNLLRHIKL,-0.407
12,FLCNQCGRDFTQKGNLLRHIKL,-0.188
13,FNCNICGATFTQKGNLLRHIKL,-0.706
14,FLCEICGAGFTQKGNLLRHIKL,-1.53
15,FMCDVCGATFTQKGNLLRHIKL,-1.67
16,FACNQCGAIFTQKGNLLRHIKL,-0.561
17,FACDVCGANFTQKGNLLRHIKL,-1.67
18,FVCEVCGAFFTQKGNLLRHIKL,-0.69
19,FTCPICGACFTQKGNLLRHIKL,-0.299
20,FTCNICGATFTQKGNLLRHIKL,-0.53
21,FACDQCGAYFTQKGNLLRHIKL,-0.686
22,FRCNVCGAKFTQKGNLLRHIKL,-0.776
23,FQCEVCGAYFTQKGNLLRHIKL,-0.532
24,FICSVCGHDFTQKGNLLRHIKL,-2.59
25,FACNQCGRLFTQKGNLLRHIKL,0.0249

row,Sequence,log2 fold change of degron read counts
1,FMCNQCGHDFTQKGNLLRHIKL,-0.736
2,FNCNVCGAPFTQKGNLLRHIKL,0.0311
3,FICPICGRYFTQKGNLLRHIKL,0.695
4,FYCDVCGAMFTQKGNLLRHIKL,-0.811
5,FLCSVCGHTFTQKGNLLRHIKL,-1.61
6,FHCNQCGHVFTQKGNLLRHIKL,-0.415
7,FKCSVCGHDFTQKGNLLRHIKL,-1.4
8,FRCEICGHMFTQKGNLLRHIKL,-0.566
9,FWCNQCGAAFTQKGNLLRHIKL,0.551
10,FICEICGAPFTQKGNLLRHIKL,-1.1
11,LDCEICGFHCTQKGNLLRHIKL,0.508
12,FICNQCGRRFTQKGNLLRHIKL,-0.0404
13,FSCNQCGAFFTQKGNLLRHIKL,0.409
14,FFCPVCGAFFTQKGNLLRHIKL,1.36
15,FNCPVCGANFTQKGNLLRHIKL,0.389
16,FGCEICGHCFTQKGNLLRHIKL,-0.155
17,FWCNVCGASFTQKGNLLRHIKL,0.496
18,LYCPICGFCCTQKGNLLRHIKL,1.38
19,FHCDQCGATFTQKGNLLRHIKL,-2.83
20,FICDQCGAKFTQKGNLLRHIKL,-1.2
21,FDCSVCGHEFTQKGNLLRHIKL,-0.929
22,FSCNQCGHAFTQKGNLLRHIKL,-0.0533
23,FSCEICGHWFTQKGNLLRHIKL,0.345
24,FNCNQCGHDFTQKGNLLRHIKL,-0.343
25,FWCEICGAWFTQKGNLLRHIKL,0.658
